According to paper PMC4336329 (PLoS ONE, 2015):
Screen size: about 310,000 compounds; about 2,200 (0.71%) showed an effect of 50% or more. The effect is printed as a negative number. This is one part of the list.

biological target: human ether-à-go-go-related gene (hERG) potassium channel (human, UniProt Q12809); assay: primary screen, population patch clamp on CHO cells stably expressing hERG
Sequence (Q12809 whole entry, looked up): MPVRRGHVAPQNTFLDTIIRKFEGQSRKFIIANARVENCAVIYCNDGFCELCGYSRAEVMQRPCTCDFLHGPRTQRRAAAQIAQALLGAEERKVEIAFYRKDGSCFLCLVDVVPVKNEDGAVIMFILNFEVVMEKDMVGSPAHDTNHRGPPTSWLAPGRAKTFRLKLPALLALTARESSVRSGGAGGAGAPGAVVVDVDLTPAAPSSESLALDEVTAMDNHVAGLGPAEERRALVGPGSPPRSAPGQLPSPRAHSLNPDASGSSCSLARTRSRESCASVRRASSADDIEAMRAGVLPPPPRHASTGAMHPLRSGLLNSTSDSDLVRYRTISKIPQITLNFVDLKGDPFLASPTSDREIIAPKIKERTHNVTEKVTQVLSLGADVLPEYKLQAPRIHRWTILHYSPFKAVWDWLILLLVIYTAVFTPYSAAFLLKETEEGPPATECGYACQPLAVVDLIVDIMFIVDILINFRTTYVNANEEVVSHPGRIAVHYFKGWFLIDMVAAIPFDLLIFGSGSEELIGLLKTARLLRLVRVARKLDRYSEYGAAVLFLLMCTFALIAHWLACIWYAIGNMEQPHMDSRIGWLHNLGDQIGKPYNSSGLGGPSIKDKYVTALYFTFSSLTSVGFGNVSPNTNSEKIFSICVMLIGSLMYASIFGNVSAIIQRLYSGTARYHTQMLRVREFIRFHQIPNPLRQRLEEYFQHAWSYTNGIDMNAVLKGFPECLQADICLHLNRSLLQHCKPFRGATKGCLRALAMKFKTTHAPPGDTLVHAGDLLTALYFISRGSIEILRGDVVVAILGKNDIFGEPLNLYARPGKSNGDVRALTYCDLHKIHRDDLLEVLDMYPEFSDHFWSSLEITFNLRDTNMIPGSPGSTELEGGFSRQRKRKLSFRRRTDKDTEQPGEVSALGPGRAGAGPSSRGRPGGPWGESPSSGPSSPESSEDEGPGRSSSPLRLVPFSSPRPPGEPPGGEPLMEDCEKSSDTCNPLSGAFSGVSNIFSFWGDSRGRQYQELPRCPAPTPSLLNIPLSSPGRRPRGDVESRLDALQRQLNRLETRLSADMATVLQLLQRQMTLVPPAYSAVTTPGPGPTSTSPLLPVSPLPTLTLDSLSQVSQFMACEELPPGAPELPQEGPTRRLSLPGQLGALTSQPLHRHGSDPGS

Structure (SMILES) | hERG current change (%, negative = inhibition) at 1uM [%]
CCOC(=O)c1ccc(CNCc2ccc(C)cc2)cc1 | -1.83
CCc1ccc(OCc2nnc(SCC(=O)N3CCN(c4ccccc4)CC3)o2)cc1 | 3.11
COc1ccc(OCCSc2n[nH]c(N)n2)cc1 | 9.4
O=C(COc1ccc(Br)cc1Cl)NNC(=O)c1ccccc1 | 3.92
O=S(=O)(NCCSCc1ccc(Cl)c(Cl)c1)c1ccc2c(c1)OCCO2 | 6.76
Cc1ccc(C)c(NC(=O)CS(=O)(=O)c2c[nH]c3ccccc23)c1 | 3.85
CCc1ccc(-n2c(SCC(=O)NC3CCS(=O)(=O)C3)nc3ccccc3c2=O)cc1 (stereo not shown) | 1.32
CC(=O)Nc1ccc(/C=N/N2CCCCC2)cc1 | 13
CC(c1ccccc1)C1NC(C(=O)O)CS1 (stereo not shown) | -5.59
Cc1ccccc1-c1nnc(SCC(=O)NC2CCCC2)o1 | 6.85
COc1ccc(NC(=O)CN(C)C(=O)c2cccc(Oc3ccccc3)c2)cc1 | 8.51
Cc1ccc(-c2nc3cnccn3c2Nc2ccc3c(c2)OCCO3)o1 | -4.27
COc1ccc2nnc(-c3ccccc3)n2n1 | -8.81
Cc1ccc2nc(SCC(=O)Nc3ccc4c(c3)OCO4)nc(=O)n2c1 | 19.4
O=C(NCc1cccnc1)c1ccc(COc2ccccc2Cl)cc1 | 12.5
NCCCCCc1nnc(SCC(=O)c2ccc(Cl)cc2)o1 | -0.888
Cc1ccc(CNc2nc(N)c([N+](=O)[O-])c(NCCO)n2)cc1 | -4.61
CC1CN(CCOCCOc2ccccc2-c2ccccc2)CC(C)O1.O=C(O)C(=O)O (stereo not shown) | 2.23
O=Cc1ccc(OC(=O)c2cccnc2)cc1 | 9.38
COC(=O)C1=C[C@@H](C(=O)OC)[C@@H]2C3=C(C(=O)C2(C)C)[C@H](C)n2c(=O)n(-c4ccccc4)c(=O)n2[C@@H]3C1 | 12.4
Cc1ccc(C)n1-c1ccc(C(=O)Nc2ccccc2F)cc1 | 10.7
CC(=O)c1cccc(N(C(=O)c2ccco2)C(C(=O)NC2CCCCC2)c2ccc(C)o2)c1 (stereo not shown) | -1.17
COc1ccc(C2=NOC(C(=O)Nc3ccc4c(c3)OCCO4)C2)cc1OC (stereo not shown) | 12.4
COc1ccc(C(=O)Oc2ccc(/C=N/Nc3ccc(Cl)c(C(=O)O)c3)cc2OC)cc1 | 14.7
Cc1ccccc1NC(=O)c1nn(C)c(C(=O)Nc2ccccc2C)c1[N+](=O)[O-] | 11.8
